We go through 167 variants from the RNAGym collection of RNA variant scans (doi:10.1093/nar/gkz1192).

Read counts are not given, so values of variants with three or more changes are uncertain.

B1: CPEB3 Ribozyme (parent)
chain: UAACAGGGGGCCACAGCAGAAGCGUUCACGUCGCAGCCCCUGUCAGAUUCUGGUGAAUCUGCGAAUUCUGCUGUAUAUCUC

The series covers variants of B1. Briefly: self-cleavage, relative activity (ratio to wild type); higher = more cleavage; in vitro, sequencing. The method in brief: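 Barcoded CPEB3 ribozyme mutants, produced by rounds of error-prone PCR, self-cleaved while being transcribed with T7 RNA polymerase for 5 hours at 37°C and during a subsequent 15 min DNase I step before EDTA was added. Sequencing of template-switched cDNA on Illumina gave cleaved and total reads, and DNA sequencing assigned barcodes to variants. Each variant's relative activity is its cleaved/total read fraction divided by the unmutated ribozyme's fraction, averaged across three batches. A variant needed a minimum of 5 reads.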
As to A3G A5G C40U A45G U49A A64U, the self-cleavage stood at 0.11. Consider A3G A20C U25C, for which the self-cleavage was determined as 0.68. To A3G A20G A64U G70U belongs 0.27; to A3G A5G G61A U69A U78C, 0.25; to A3G A18G A20U U41A, 0.09. As to A3G A13U A15G U26A U31A, the self-cleavage turned out to be 0.55.

For A3G A18G U67A U78C, the self-cleavage is 0.28. To A3G A5U A28U U41C U66C belongs 0.36; to A3G A13G U31G G46U U80G, 0.63; to A3G A15G U26C U31C A35U A45U U60C, 0.33. The figure for A3G A5U U41C A57G is 0.98; for A3G A13U U25C U80C it is 0.15. On to A3G A13G U25C U31C G33A U54C C62U, for which the self-cleavage came to 0.29.

On to A3G A15G C34U U72A, for which the self-cleavage amounted to 0.43. Regarding A3G A20C C34G A65U C68A, the self-cleavage amounted to 0.04.

Regarding A3G A15G U25A C34U U43C U49C U69C, the self-cleavage amounted to 0.17. The figure for A3G A5U U41C U78C is 1.06.

In the case of A3G A5U A20G U67C U74A, the self-cleavage is 1.24. The figure for A3G A15C U41C A45G is 1.03. To A3G A5G U69A belongs 0.55; to A3G A13U A21U A57U, 0.37. For the variant A3G A15U A18U A28G C68A A75C, the self-cleavage amounted to 0.09. The figure for A3G A13G U48C G53A A65G U74C is 0.07; for A3G A5G C12A U43C U72C U74G it is 0.24. The figure for A3G A15U C38U A47G is 0.68. To A3G A5U U31C U54C A64G belongs 0.66; to A3G A15G U49C U54A A56G A57G, 0.37; to A3G A5G U26C A57C U66C, 0.21. With A3G A15G A18G A21G U72A, the self-cleavage came out at 0.17. To A3G A15U C29U C68A U80C belongs 0.09; to A3G A15C G36U, 0.39; to A3G A18U U41A A75G, 0.42. To A3G A15U A64G A65G U72C belongs 0.14; to A3G A20G U25A C40U U43A U60C, 0.09; to A3G A18U U48A A65G, 0.07. Regarding A3G A15G U58C, the self-cleavage stood at 0.28.

On to A3G A5G C29G A45U, for which the self-cleavage came to 0.14.

With A3G A15G U58A U72C U76A, the self-cleavage was 0.67.

Regarding A3G A15U U67G U72G U74C, the self-cleavage amounted to 0.15. Turning to A3G A13G C39U U49C A56G, the self-cleavage is 0.52.

Regarding A3G A5G A35G A47G, the self-cleavage was determined as 1.09. To A3G A5G U60A U76C U78A belongs 0.15. To A3G A13G A21G belongs 0.32; to A3G A18U A28G G61A, 0.24. For the variant A3G A13U U26C C32U G53A U80C, the self-cleavage is 0.11. To A3G A18G C71A belongs 0.56; to A3G A20G A28U C38A U43C G61A, 0.06; to A3G A13G A35G U72A, 0.2. The figure for A3G A15U C34U G46C U67C U72C is 0.07; for A3G A13U A28U U48C G61A U66G it is 0.25.

For the variant A3G A15G U31C U48C, the self-cleavage came out at 0.68. As for A3G A15U U25A U49C U58C A64G G73A, the self-cleavage was 0.31. The figure for A3G A5G U31A A35G G52U A64G U80A is 0.99. To A3G A5U A18U G70C belongs 0.21; to A3G A15C A47G C50U U54C, 0.24. The figure for A3G A15G U58C U69C is 0.24; for A3G A15C U48C U67C it is 0.15. For A3G A15G U26C, the self-cleavage worked out at 0.72.

Take A3G A18G A20G G24A U51C U54C A56G: the self-cleavage came out at 0.05. The figure for A3G A13G G33A A65G U74A is 0.08. To A3G A18G A21G belongs 0.32. The figure for A3G A5U G33A is 0.58; for A3G A18G U31A A35G it is 0.6. For the variant A3G A5U A47C G55A U72C A75U U80C, the self-cleavage was found to be 0.31.

For the variant A3G A15G U66C U69C A77G, the self-cleavage was determined as 0.28. To A3G A15U A20G C23U A28G A47G U69C belongs 0.29.

Regarding A3G A18G U43A A77U, the self-cleavage worked out at 0.93. As for A3G A13U A45G U51A U60G U74C, the self-cleavage was determined as 0.49. On to A3G A5G U72C, for which the self-cleavage is 0.96. To A3G A5G U72A belongs 0.56; to A3G A20G U26C A35U C39U G55C, 0.01; to A3G A15U A64U, 0.17.

For A3G A5U A15G U26A A45U U60C, the self-cleavage stood at 0.16. The figure for A3G A5U A18U U67C is 0.16; for A3G A18U A21U it is 0.4. To A3G A15G C38A U80C belongs 0.6. For A3G A15G U31C, the self-cleavage was 0.41.

For A3G A13G A18G C81U, the self-cleavage was found to be 0.54. To A3G A5G U49C U72A belongs 0.28; to A3G A15G U69C, 0.5. The figure for A3G A13U A15G C34U U58C U76G U80C is 0.12; for A3G A15G U41C U49A U58A it is 0.24. As to A3G A18U A20G U49C U76C, the self-cleavage was determined as 0.18.

As for A3G A5U U25C U26C A45G C50U A56G, the self-cleavage is 0.

With A3G A13U A35G U60C U72C U78C, the self-cleavage was 1.07. To A3G A20G G30A belongs 0.2; to A3G A15G G30U U41C C50A A57C U72A, 0.01; to A3G A13G C32A, 0.55. To A3G A13G C38U G42A U69C belongs 0.07; to A3G A15G G16C A35G C81A, 0.66; to A3G A5U U60C, 0.6.

In the case of A3G A18U A21G A35U G42U G63A, the self-cleavage was determined as 0.32. The figure for A3G A5G A35C U69C U72C is 0.1. To A3G A13U A57G U60A belongs 0.43; to A3G A13G C62U U74A, 0.38.

For A3G A18G U25C U31G A35G, the self-cleavage worked out at 0. Turning to A3G A15G U26C U43C, the self-cleavage was 0.24. The figure for A3G A20C U67C is 0.23; for A3G A5U A21G U54C it is 1.02. Regarding A3G A13U A21U, the self-cleavage is 0.63. The figure for A3G A15G C39U is 0.71; for A3G A13U A28U U54A A75G it is 1.08. The figure for A3G A18U U51C U67A is 0.41. Take A3G A18U C50A U51G: the self-cleavage was 0.32. On to A3G A18U U26C, for which the self-cleavage stood at 0.28. Take A3G A15G A35G U58C: the self-cleavage is 0.56. Take A3G A18U A77C: the self-cleavage worked out at 0.41. To A3G A5U G22C U31C belongs 0.26; to A3G A13U U31A U41C U69C, 0.23. To A3G A13U U41C A65G belongs 0.56; to A3G A13G U31C, 0.54. To A3G A15U C39A C40A U51C belongs 0.1. On to A3G A5U U25A C44A U54C C68G, for which the self-cleavage was determined as 0.2.

Turning to A3G A13G U78A, the self-cleavage turned out to be 1.03. To A3G A15G A35G belongs 0.76; to A3G A13U A35U U49C U72C U76A U78C, 0.3. As to A3G A15G A21G A65G U67C U69A, the self-cleavage is 0.25. The figure for A3G A5G C23G A28G U58A is 0.18; for A3G A13G U54C G70A it is 0.34. The figure for A3G A5U A15U is 1.04. Consider A3G A15G C62U U69A, for which the self-cleavage stood at 0.23.

In the case of A3G A13G G46U U72C U80G, the self-cleavage is 0.44. To A3G A18G A20G A65G belongs 0.17; to A3G A5G U51C, 0.83.

For the variant A3G A13G A15U A20U U49C A64U, the self-cleavage stood at 0.33. To A3G A15G G22C U31C belongs 0.4; to A3G A15U A18U U76A, 0.48; to A3G A15G G22A U25C A57U U58C U74A, 0.26.

Take A3G A15U A75C: the self-cleavage amounted to 0.71. As for A3G A13U U26C U41A, the self-cleavage worked out at 0.09. For the variant A3G A15U A45G, the self-cleavage worked out at 0.26. To A3G A13G U31A U54C G63A belongs 0.44. To A3G A15G G36C U67G belongs 0.13. As for A3G A5G G6A A35U U69A, the self-cleavage amounted to 0.13. To A3G A15U A45U G46C U51A U67C U74C belongs 0.09; to A3G A15G A18G U31A A65G U67A U69C, 0.3.

For the variant A3G A15G G30A A65G, the self-cleavage was 0.37. To A3G A5G G9A A21U A35G U49C U78A belongs 0.34; to A3G A13C A18C U60C U66C, 0.35.

On to A3G A20G G22A A35U, for which the self-cleavage stood at 0.06. In the case of A3G A13G A20G U25C G63U, the self-cleavage stood at 0.75. Consider A3G A13G C14A U26A U60C, for which the self-cleavage amounted to 0.31.

On to A3G A13G U43A A56G U74A, for which the self-cleavage is 1.12. To A3G A15U A18G A21G U74C U76A belongs 0.19; to A3G A15G U60A U72C, 1.03; to A3G A13G U41C A57G A65G U78C, 0.4. To A3G A13C A15U C32U A35G A45G U80C belongs 0.18; to A3G A15U A64U U67A, 0.08; to A3G A13U G24A U43A A45G A64U, 0.08. As for A3G A18U A75G, the self-cleavage worked out at 0.42. For the variant A3G A5G C23U A28G U60C U80C, the self-cleavage was found to be 0.4. To A3G A5U A15G A20G A21U G22C U58C belongs 0.74; to A3G A5U C40U U51C U54G C68A, 0.18; to A3G A13G A20G A57G U60C, 0.79. To A3G A15G U54A belongs 1.02; to A3G A18G U76C, 0.89.

For the variant A3G A5U U25C A77C U78C, the self-cleavage was found to be 0.55. The figure for A3G A13U A18G C29U U43C A56G U69C is 0.27.

Turning to A3G A13C C23U, the self-cleavage came out at 0.15.

Regarding A3G A5U U43C A56G A57G, the self-cleavage was 0.35. To A3G A5U G7A A21U U25G U31A U78C belongs 0.21; to A3G A20G A28G, 0.28; to A3G A13G U41C A75G, 0.74. The figure for A3G A18G A45U U51C is 0.46; for A3G A13G A15U U25G U41C U43A A47U it is 0.08; for A3G A15G U26A A45U A65G it is 0.12. A3G A5G U31C A57G U72A: the self-cleavage amounted to 0.2.
